The source gives no read counts; variants with many changes may rest on few reads.
B1: CPEB3 Ribozyme (parent)
chain: UAACAGGGGGCCACAGCAGAAGCGUUCACGUCGCAGCCCCUGUCAGAUUCUGGUGAAUCUGCGAAUUCUGCUGUAUAUCUC

Variants of: B1
Assay: self-cleavage, relative activity (ratio to wild type); higher = more cleavage; in vitro, sequencing
Method in brief: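 After error-prone PCR and barcoding, CPEB3 ribozyme mutant libraries were transcribed with T7 RNA polymerase at 37°C for 5 hours, then given 15 min with DNase I before an EDTA stop, and they cleaved during both steps. Reverse transcription with template switching preceded Illumina sequencing. Relative activity divides a variant's cleaved/total read fraction by the unmutated ribozyme's. At least 5 reads were required per variant, and three batches were averaged.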
Work on G33A U43A U66C yielded a self-cleavage of 0.28.
In the case of G33A A35U U78C, the self-cleavage is reported as 0.15.
Variant G33A U43C A65G G73A U80C has a self-cleavage of 0.09.
C32G A35G U48C showed a self-cleavage of 0.07.
In the case of C32U C71G U80G, the self-cleavage is reported as 0.16.
With C32A U58A U72A A77G the self-cleavage was 0.06.
Variant G33U A35G A45G U54C has a self-cleavage of 0.14.
With G33A U41G U43A U72C the self-cleavage was 0.15.
With U31C U41C A77U the self-cleavage was 0.88.
For U31G A64U U66C, the self-cleavage was 0.39.
U31C U67C U72A showed a self-cleavage of 0.16.
With U31G A35G U48C C62A the self-cleavage was 0.16.
With U31G U41C U69C the self-cleavage was 0.13.
C32U C39G A45U A65U gave a self-cleavage of 0.08.
Work on C32U U43A A56U U69A yielded a self-cleavage of 0.07.
For U31C U51C A77U, the self-cleavage was 0.91.
With U31C U41C U43C A45G A77U the self-cleavage was 0.
With U31G C59U U60G the self-cleavage was 0.14.
With U31G U41A U49C the self-cleavage was 0.08.
Work on G33A A35U A47G C68U yielded a self-cleavage of 0.11.
Work on U31C U48A A77C yielded a self-cleavage of 0.15.
U31C G53U A65G showed a self-cleavage of 0.2.
For C32U A35U U60A, the self-cleavage was 0.12.
Variant C32G C38U U60A U74G has a self-cleavage of 0.09.
For U31G U43C A57G U76C, the self-cleavage was 0.13.
With G33U U41C U60A the self-cleavage was 0.12.
U31C U69A U72C showed a self-cleavage of 0.24.
U31G A35G U41A U67C gave a self-cleavage of 0.11.
C34A U41A G63A showed a self-cleavage of 0.63.
Variant U31G C38U A56U A75G has a self-cleavage of 0.08.
Work on U31G C32U U49A A56G U72C yielded a self-cleavage of 0.09.
U31G U43C A57G U72A showed a self-cleavage of 0.22.
G33U A45U G53A A56G U74C showed a self-cleavage of 0.17.
For U31C U41G U54C U78G, the self-cleavage was 0.18.
Work on G33A U49C U67A U76A yielded a self-cleavage of 0.13.
U31C U41A A57G U60C showed a self-cleavage of 0.15.
C32U U48G U51C U80C showed a self-cleavage of 0.08.
In the case of C32A A47G U48C U69A U72G A75G, the self-cleavage is reported as 0.05.
G33C A35U U54C showed a self-cleavage of 0.11.
For C32U A45U A64G C81A, the self-cleavage was 0.08.
C32U C40G U43A U49C U58C A65G showed a self-cleavage of 0.05.
G33C U54A U60G gave a self-cleavage of 0.03.
With C32U U41C A64G the self-cleavage was 0.14.
In the case of U31G A75G U80C, the self-cleavage is reported as 0.18.
G33C U43C A47U showed a self-cleavage of 0.15.
Work on G33A A57G A77G yielded a self-cleavage of 0.21.
Work on U31C U66C C71U yielded a self-cleavage of 0.19.
Work on U31C U54C C62G U67C C68G yielded a self-cleavage of 0.22.
For U31C U51C A75G U80C, the self-cleavage was 0.44.
With C34A U69C U74A A75G the self-cleavage was 0.07.
With U31C U49C A56U the self-cleavage was 0.15.
In the case of U31C U43C U49A U54C U60C U72A U80A, the self-cleavage is reported as 0.04.
In the case of U31C U54C G55A A65G, the self-cleavage is reported as 0.11.
For U31C U51A A77U, the self-cleavage was 0.83.
Variant G33A A57G U69C has a self-cleavage of 0.19.
G33U U51C U72C showed a self-cleavage of 0.15.
U31C U48C U60C U74C A77G gave a self-cleavage of 0.1.
U31C U58G A65U showed a self-cleavage of 0.15.
G33A A56G U80C gave a self-cleavage of 0.1.
Variant U31C U51C G52U has a self-cleavage of 1.06.
Variant C32U A45U A47G has a self-cleavage of 0.11.
With U31C U60A U72A the self-cleavage was 0.12.
C32U A35G A47G U51C showed a self-cleavage of 0.18.
Variant G33A U54C U67C U72C U76A has a self-cleavage of 0.05.
Work on U31G U41C U72A yielded a self-cleavage of 0.37.
C32A U43A A47U gave a self-cleavage of 0.24.
For C32U A77G U78A, the self-cleavage was 0.24.
For G33A U48C U66C, the self-cleavage was 0.15.
In the case of U31G A35G A65G U69A, the self-cleavage is reported as 0.32.
In the case of C32U C37U A45U, the self-cleavage is reported as 0.14.
With G33A U41C U51C A56G U58C U72A the self-cleavage was 0.07.
In the case of C32A A65G U66C, the self-cleavage is reported as 0.17.
U31C U41C U51A U58C showed a self-cleavage of 0.46.
U31C U51C A56G U72G A75U gave a self-cleavage of 0.55.
For C32A C40U U69C U78A, the self-cleavage was 0.06.
With C32U U43C U49C U69C the self-cleavage was 0.47.
For U31C U41C A57G U58A U60C C81A, the self-cleavage was 0.09.
C32A U41A A45U U51C U72C showed a self-cleavage of 0.17.
C34G C40A A64G U69A U76A U78C showed a self-cleavage of 0.03.
With U31G A64G C81U the self-cleavage was 0.32.
With G33A U43A A64U U66C the self-cleavage was 0.19.
For U31C U49A C79U, the self-cleavage was 0.54.
Variant C32A U49C U54C has a self-cleavage of 0.06.
In the case of U31C U54G U69C U76C, the self-cleavage is reported as 0.2.
Work on G33A U54A U69A yielded a self-cleavage of 0.49.
Variant C32U C59A U67A has a self-cleavage of 0.14.
Work on G33A A57U U72A A75U yielded a self-cleavage of 0.13.
Work on U31C U49A U58C yielded a self-cleavage of 0.1.
U31C U51A U78C gave a self-cleavage of 0.87.
For G33U A45G U48C A64G, the self-cleavage was 0.05.
In the case of C32A A35U G42C A57G, the self-cleavage is reported as 0.1.
For U31C U58C U69C, the self-cleavage was 0.16.
G33A A35G A56U C79A gave a self-cleavage of 0.18.
C34G G52A U60C showed a self-cleavage of 0.23.
In the case of C32U A64G C71U U80C, the self-cleavage is reported as 0.12.
Variant G33A A56G A57C has a self-cleavage of 0.47.
Variant U31C U54A U58C has a self-cleavage of 0.46.
In the case of G33U A35C U60A, the self-cleavage is reported as 0.11.
G33A C50A A77U gave a self-cleavage of 0.26.
For G33A U51C A56G U80C, the self-cleavage was 0.1.
C32U U72A A75G showed a self-cleavage of 0.19.
Variant C32U C40U A56G has a self-cleavage of 0.39.
Work on U31C U41C U51C G55A U80A yielded a self-cleavage of 0.66.
In the case of U31G U51C A75U, the self-cleavage is reported as 0.61.
Work on U31G G42C U80C yielded a self-cleavage of 0.18.
C32A U60C A64G U74C gave a self-cleavage of 0.13.
For G33U U60C U66C, the self-cleavage was 0.12.
Variant C32G A35U A47U C59U has a self-cleavage of 0.06.
G33A U58C U60C showed a self-cleavage of 0.11.
Work on U31C U58C U60C A64G A65G yielded a self-cleavage of 0.25.
U31C U43C A47U U78C gave a self-cleavage of 0.24.
Variant U31C U67C U78C has a self-cleavage of 0.18.
With U31C G53A G55A the self-cleavage was 0.56.
G33A A47G G73C U76A showed a self-cleavage of 0.09.
G33A U60C U80A gave a self-cleavage of 0.19.
Variant G33A U60C U80C has a self-cleavage of 0.15.
In the case of G33A U60C U76C U80A, the self-cleavage is reported as 0.05.
Work on C32A A35G U41C U54A U60C U72C yielded a self-cleavage of 0.13.
C32G A47G U58C C59A A64U U67A gave a self-cleavage of 0.08.
Variant U31C U74C U78C U80A has a self-cleavage of 1.31.
U31G U48C U51C U60C gave a self-cleavage of 0.19.
For G33A C39A U43C U69C, the self-cleavage was 0.17.
U31G U41C U51C gave a self-cleavage of 0.5.
With U31C U51G G52U A56U U80C the self-cleavage was 0.33.
C34A U54C U72A gave a self-cleavage of 0.18.
Work on G33C U60C U78C yielded a self-cleavage of 0.12.
In the case of U31C U41A A64G, the self-cleavage is reported as 0.29.
Work on U31G U49A U60C U74C U78C yielded a self-cleavage of 0.08.
U31C U60C G63U showed a self-cleavage of 0.4.
G33C U41A U51A A57G gave a self-cleavage of 0.09.
C32U U41A U72A gave a self-cleavage of 0.12.
G33A C40A G42U G63A A65U gave a self-cleavage of 0.09.
U31C U49C A56G U60A U80A gave a self-cleavage of 0.16.
With U31G U41G A47G C59A A64G the self-cleavage was 0.09.
For C32U U54C A56U U72C, the self-cleavage was 0.14.
For G33A U51C U67A, the self-cleavage was 0.07.
Variant C34A A35U U60C G61U has a self-cleavage of 0.17.
With C34A A57G U76C the self-cleavage was 0.54.
For C32U U51C A56U, the self-cleavage was 0.36.
U31G U43A U48C C59A U60A gave a self-cleavage of 0.1.
With G33A G46A U66C the self-cleavage was 0.1.
In the case of U31C U54A G63C U78A, the self-cleavage is reported as 0.64.
C32G U43C U48C gave a self-cleavage of 0.32.
For U31C U51C A64G U78A, the self-cleavage was 0.63.
G33A U43C U49C A57C U60C U74A A75G showed a self-cleavage of 0.07.
C32A A45G U66C U76A U80C showed a self-cleavage of 0.11.
C32A G36A U58A C59U U66C U74A showed a self-cleavage of 0.07.
C32A C40U U60C showed a self-cleavage of 0.14.
Work on U31C U41C U51C U69C yielded a self-cleavage of 0.43.
For G33U G55U A64G U66C, the self-cleavage was 0.11.
C32U A45G A75G showed a self-cleavage of 0.15.
Work on C32A A45G U54C U66C yielded a self-cleavage of 0.12.
U31C U60C U69C showed a self-cleavage of 0.3.
Work on C34A U48C C71U U80C yielded a self-cleavage of 0.14.
Work on U31C U49A A77G yielded a self-cleavage of 0.49.
With C32U G46U C62U U80C the self-cleavage was 0.03.
For U31C U43C U66C U69A, the self-cleavage was 0.39.
For G33C U41A G52U, the self-cleavage was 0.15.
With C32G A56G U66C the self-cleavage was 0.43.
For C32A G33A A56U U58C U72C U76A, the self-cleavage was 0.07.
In the case of U31C U41C A45U A47G A64U U74C A75G, the self-cleavage is reported as 0.07.
Work on C32U A47G U66A yielded a self-cleavage of 0.15.
For C32U U69A U78C U80C, the self-cleavage was 0.06.
U31C U43A U54C U67C U69C gave a self-cleavage of 0.1.
U31C U41A U60C A64G showed a self-cleavage of 0.15.
Variant C32A U51C A56G A64U U69C has a self-cleavage of 0.04.
G33C U43A U49C A57U A75G A77G gave a self-cleavage of 0.09.
